# Measurements reported in the supplement of paper PMC8728848.
# The other results are listed elsewhere or left out.
# B1: Surfactant Protein D (Human); Neck + Carbohydrate Recognition Domain (NCRD) (Homo sapiens) (protein)
# chain: MLLFLLSALVLLTQPLGYLEAEMKTYSHRTMPSACTLVMCSSVESGLPGRDRDGREGPRGEKGDPGLPGAAGQAGMPGQAGPVGPKGDNGSVGEPGPKGDTGPSGPPGPPGVPGPAGREGALGKQGNIGPQGKPGPKGEAGPKGEVGAPGMQGSAGARGLAGPKGERGVPGERGVPGNTGAAGSAGAMGPQGSPGARGPPGLKGDKGIPGDKGAKGESGLPDVASLRQQVEALQGQVQHLQAAFSQYKKVELFPNGQSVGEKIFKTAQFVKPFTEAQLLCTQAGGQLASPRSAAENAALQQLVVAKNEAAFLSMTDSKTEGKFTYPTGESLVYSNWAPGEPNDDGGSEDCVEIFTNGKWNDRACGEKRLVVCEF
# What was measured:
# Experiment in all cases: glycan array binding signal (z-score within array); higher = stronger binding
# Conditions in all cases: glycan notation: IUPAC condensed, linker removed
# [1] = target: Neu5Ac(a2-6)Gal(b1-4)GlcNAc(b1-2)Man(a1-3)[Gal(b1-4)GlcNAc(b1-2)Man(a1-6)]Man(b1-4)GlcNAc(b1-4)GlcNAc
# Method in brief: (§1)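 Glycan array data were curated from 3228 arrays in the Consortium for Functional Glycomics database and kept only where the protein sequence was available. Glycan names were converted to IUPAC-condensed notation, and columns mapping to the same glycan were averaged. The binding signal is a within-array Z-score, averaged across arrays of the same protein sequence at different concentrations or buffers and across linkers. Negative Z-scores can be read as non-binding.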
# [2] = target: Neu5Ac(a2-6)Gal(b1-4)GlcNAc(b1-2)Man(a1-3)[GlcNAc(b1-2)Man(a1-6)]Man(b1-4)GlcNAc(b1-4)GlcNAc
# Method in brief: as §1
# [3] = target: Neu5Ac(a2-6)Gal(b1-4)GlcNAc(b1-2)Man(a1-3)[GlcNAc(b1-2)Man(b1-4)GlcNAc(b1-2)Man(a1-6)]Man(b1-4)GlcNAc(b1-4)GlcNAc
# Method in brief: as §1
# [4] = target: Neu5Ac(a2-6)Gal(b1-4)GlcNAc(b1-2)Man(a1-3)[Neu5Ac(a2-6)Gal(b1-4)GlcNAc(b1-2)Man(a1-6)]Man(b1-4)GlcNAc(b1-4)GlcNAc
# Method in brief: as §1
# [5] = target: Neu5Ac(a2-6)Gal(b1-4)GlcNAc(b1-2)Man(a1-6)[Gal(b1-4)GlcNAc(b1-2)Man(a1-3)]Man(b1-4)GlcNAc(b1-4)GlcNAc
# Method in brief: as §1
# [6] = target: Neu5Ac(a2-6)Gal(b1-4)GlcNAc(b1-2)Man(a1-6)[GlcNAc(b1-2)Man(a1-3)]Man(b1-4)GlcNAc(b1-4)GlcNAc
# Method in brief: as §1
# [7] = target: Neu5Ac(a2-6)Gal(b1-4)GlcNAc(b1-3)Gal(b1-4)GlcNAc
# Method in brief: as §1
# [8] = target: Neu5Ac(a2-6)Gal(b1-4)GlcNAc(b1-3)Gal(b1-4)[Fuc(a1-3)]GlcNAc(b1-3)Gal(b1-4)[Fuc(a1-3)]GlcNAc
# Method in brief: as §1
# [9] = target: Neu5Ac(a2-6)Gal(b1-4)GlcNAc6S
# Method in brief: as §1
# [10] = target: Neu5Ac(a2-6)GalNAc
# Method in brief: as §1
# [11] = target: Neu5Ac(a2-6)GalNAc(b1-4)GlcNAc
# Method in brief: as §1
# [12] = target: Neu5Ac(a2-8)Neu5Ac
# Method in brief: as §1
# [13] = target: Neu5Ac(a2-8)Neu5Ac(a2-3)Gal(b1-4)Glc
# Method in brief: as §1
# [14] = target: Neu5Ac(a2-8)Neu5Ac(a2-3)[GalNAc(b1-4)]Gal(b1-4)Glc
# Method in brief: as §1
# [15] = target: Neu5Ac(a2-8)Neu5Ac(a2-8)Neu5Ac
# Method in brief: as §1
# [16] = target: Neu5Ac(a2-8)Neu5Ac(a2-8)Neu5Ac(a2-3)Gal(b1-4)Glc
# Method in brief: as §1
# [17] = target: Neu5Ac(a2-8)Neu5Ac(a2-8)Neu5Ac(a2-3)[GalNAc(b1-4)]Gal(b1-4)Glc
# Method in brief: as §1
# [18] = target: Neu5Ac(a2-8)Neu5Ac(a2-8)Neu5Ac(a2-8)Neu5Ac(a2-3)[GalNAc(b1-4)]Gal(b1-4)Glc
# Method in brief: as §1
# [19] = target: Neu5Ac(b2-6)Gal(b1-4)GlcNAc
# Method in brief: as §1
# [20] = target: Neu5Ac(b2-6)GalNAc
# Method in brief: as §1
# [21] = target: Neu5Ac9Ac(a2-6)Gal(b1-4)GlcNAc
# Method in brief: as §1
# [22] = target: Neu5Gc(a2-3)Gal(b1-3)GlcNAc
# Method in brief: as §1
# [23] = target: Neu5Gc(a2-3)Gal(b1-3)[Fuc(a1-4)]GlcNAc
# Method in brief: as §1
# [24] = target: Neu5Gc(a2-3)Gal(b1-4)Glc
# Method in brief: as §1
# [25] = target: Neu5Gc(a2-3)Gal(b1-4)GlcNAc
# Method in brief: as §1
# [26] = target: Neu5Gc(a2-3)Gal(b1-4)[Fuc(a1-3)]GlcNAc
# Method in brief: as §1
# [27] = target: Neu5Gc(a2-6)Gal(b1-4)GlcNAc
# Method in brief: as §1
# [28] = target: Neu5Gc(a2-6)GalNAc
# Method in brief: as §1
# [29] = target: Neu5Gc(b2-6)Gal(b1-4)GlcNAc
# Method in brief: as §1
binder,measurement,setting,value
B1,glycan array binding signal (z-score),[1],-0.248
same,glycan array binding signal (z-score),[2],-0.267
same,glycan array binding signal (z-score),[3],-0.171
same,glycan array binding signal (z-score),[4],-0.262
same,glycan array binding signal (z-score),[5],-0.271
same,glycan array binding signal (z-score),[6],-0.273
same,glycan array binding signal (z-score),[7],-0.277
same,glycan array binding signal (z-score),[8],0.12
same,glycan array binding signal (z-score),[9],-0.259
same,glycan array binding signal (z-score),[10],-0.269
same,glycan array binding signal (z-score),[11],-0.254
same,glycan array binding signal (z-score),[12],-0.171
same,glycan array binding signal (z-score),[13],-0.177
same,glycan array binding signal (z-score),[14],-0.238
same,glycan array binding signal (z-score),[15],-0.221
same,glycan array binding signal (z-score),[16],-0.29
same,glycan array binding signal (z-score),[17],-0.258
same,glycan array binding signal (z-score),[18],-0.234
same,glycan array binding signal (z-score),[19],-0.288
same,glycan array binding signal (z-score),[20],-0.258
same,glycan array binding signal (z-score),[21],-0.282
same,glycan array binding signal (z-score),[22],-0.278
same,glycan array binding signal (z-score),[23],-0.276
same,glycan array binding signal (z-score),[24],-0.202
same,glycan array binding signal (z-score),[25],-0.27
same,glycan array binding signal (z-score),[26],-0.261
same,glycan array binding signal (z-score),[27],-0.263
same,glycan array binding signal (z-score),[28],-0.247
same,glycan array binding signal (z-score),[29],-0.243
